{"source": "PubChem BioAssay AID504832", "about": "(National Center for Advancing Translational Sciences (NCATS), 2011)", "note": "Hit rate of the full screen: of about 310,000 compounds, about 18,000 (5.8%) were called active. This list was built around the results that the source calls inconclusive (neither active nor inactive); the mix of calls is not that of the screen. Calls come from the whole dose curve; as a rule, active = well fitted inhibition curve with a large enough effect; inconclusive = small, poorly fitted or top-dose-only effect, or another doubt; inactive = no such curve, though single readings can be large or run the other way. No potency is given beside an inconclusive call; the fits are too rough. Potency is the fitted concentration of half-maximal effect; tags give direction and shape of the fitted curve.", "data": [{"test": "Primary qHTS for delayed death inhibitors of the malarial parasite plastid, 48 hour incubation", "conditions": "P. falciparum luciferase growth in erythrocytes; series mostly up to 28.7 µM", "summary_of_the_method": "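Here the parasites carry a stable luciferase gene and grow inside erythrocytes in Albumax-based RPMI medium with compound for one erythrocytic cycle. Activity is scored as loss of luminescent signal.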", "values": [{"smiles": "CC(C)c1ccc2[nH]c(O)c(N=NC(=S)NCCc3ccccc3)c2c1", "Potency": "inconclusive [inhibitor, single point]"}, {"smiles": "Cc1ccc(N/N=C/c2ccncc2)cc1", "Potency": "inconclusive [inhibitor, partial curve]"}, {"smiles": "COc1cc2c(cc1OC)C(=O)CC(C)S2", "note": "(stereo not drawn)", "Potency": "inactive"}, {"smiles": "CC(OC(=O)Cc1c[nH]c2ccccc12)C(=O)NC1CCCCC1C", "note": "(stereo not drawn)", "Potency": "inconclusive [inhibitor, single point]"}, {"smiles": "COC(=O)C1=C(c2ccc(-c3ccccc3)c(F)c2)C[C@@H]2CC[C@H]1N2C(=O)NC1Cc2ccccc2C1", "Potency": "active: 9.28 µM"}, {"smiles": "O=C(CSCc1ccc(Cl)cc1)Nc1cc([N+](=O)[O-])ccc1O", "Potency": "inconclusive [inhibitor, partial curve, poor fit]"}, {"smiles": "O=C(NCCC1CCCCN1S(=O)(=O)c1ccccc1)C(=O)NCc1ccccn1", "note": "(stereo not drawn)", "Potency": "inactive"}, {"smiles": "c1csc(C2Nc3ccccc3-c3nc4ccccc4n32)c1", "note": "(stereo not drawn)", "Potency": "inconclusive [inhibitor, partial curve, poor fit]"}, {"smiles": "CN(CC(=O)O)c1ccc(S(=O)(=O)N2CCOCC2)cc1[N+](=O)[O-]", "Potency": "active: 2.62 µM"}, {"smiles": "Cn1c(=O)oc2cc(NC(=O)CCl)ccc21", "Potency": "active: 5.22 µM"}, {"smiles": "Cc1csc(Cn2c(CN(C)C)nc3ccccc3c2=O)n1", "Potency": "inactive"}, {"smiles": "CCNC(=O)CC1C(=O)N(c2ccc(F)cc2)C(=S)N1CCc1ccncc1", "note": "(stereo not drawn)", "Potency": "active: 13.1 µM"}, {"smiles": "COC(=O)CC1COc2ccccc2N1C(=O)c1cccc(C(F)(F)F)c1", "note": "(stereo not drawn)", "Potency": "inconclusive [inhibitor, partial curve, poor fit]"}, {"smiles": "COCCn1c(SCC(=O)N2CC(=O)Nc3ccccc32)nc2ccccc2c1=O", "Potency": "inconclusive [inhibitor, single point]"}, {"smiles": "Cc1ccc(S(=O)(=O)N(C)C)cc1NC(=O)COC(=O)CNC(=O)C12CC3CC(CC(C3)C1)C2", "Potency": "inconclusive [inhibitor, single point]"}, {"smiles": "CCN(Cc1ccc(C#CCCO)cc1)CC1CCCN(CCc2cccc(F)c2)C1", "note": "(stereo not drawn)", "Potency": "active: 4.65 µM"}, {"smiles": "CCc1ccc2c(CN(C)Cc3ccc(OC(F)F)c(OC)c3)cc(=O)oc2c1", "Potency": "inconclusive [inhibitor, single point]"}, {"smiles": "Cc1cccc(C)c1NC(=O)CNC(=O)c1ccc2c(c1)OCCO2", "Potency": "inactive"}, {"smiles": "CCN(Cc1ccccc1)C(=O)c1c(-c2ccccc2Cl)noc1C", "Potency": "inconclusive [inhibitor, full curve]"}, {"smiles": "CCCCn1c(-c2ccco2)nc2oc3ccccc3c(=O)c2c1=O", "Potency": "inconclusive [inhibitor, single point]"}, {"smiles": "CC(=O)c1cccc(N(C(=O)c2ccco2)C(C(=O)NC2CCCC2)c2cccs2)c1", "note": "(stereo not drawn)", "Potency": "inconclusive [inhibitor, partial curve]"}, {"smiles": "O=c1cc(CO)oc(C(Nc2ccccn2)c2ccccc2Cl)c1O", "note": "(stereo not drawn)", "Potency": "inconclusive [inhibitor, single point]"}, {"smiles": "NC(=O)c1ccsc1NC(=O)Cc1ccc([N+](=O)[O-])cc1", "Potency": "inactive"}, {"smiles": "Cc1cc(C)cc(C(=O)Nc2c3c(nn2C(C)(C)C)CS(=O)(=O)C3)c1", "Potency": "inconclusive [inhibitor, single point]"}, {"smiles": "Cc1cc(S(=O)(=O)N2CCN(c3ccccc3C)CC2)ccc1F", "Potency": "inconclusive [inhibitor, single point]"}, {"smiles": "Cc1nn(-c2ccccc2)c(C)c1/C=N/NC(=O)c1cc(O)cc(O)c1", "Potency": "inconclusive [inhibitor, single point]"}, {"smiles": "CN(CC(=O)Nc1ccccc1Cl)C(=O)CSC(=S)N1CCCC1", "Potency": "inconclusive [inhibitor, single point]"}, {"smiles": "O=C(O)CCn1cc(/C=C/C(=O)c2ccc(Cl)cc2)c(-c2cccc(Br)c2)n1", "Potency": "inconclusive [inhibitor, partial curve]"}, {"smiles": "COc1c(N2CCNC(C)C2)c(F)cc2c(=O)c(C(=O)O)cn(C3CC3)c12", "note": "(stereo not drawn)", "Potency": "inconclusive [inhibitor, partial curve]"}, {"smiles": "CCOc1ccccc1NC(=O)CSc1nc2c(c(=O)n1C)SC(C)C2", "note": "(stereo not drawn)", "Potency": "inconclusive [inhibitor, partial curve]"}, {"smiles": "Clc1ccc(SCc2cc(N3CCOCC3)nc(-c3ccccn3)n2)cc1", "Potency": "inconclusive [inhibitor, partial curve, poor fit]"}, {"smiles": "COc1cc(C(C)=O)ccc1Oc1ncccn1", "Potency": "inactive"}, {"smiles": "CC(C)(CO)NS(=O)(=O)c1ccc2c(c1)C(=NO)c1cc(S(=O)(=O)NC(C)(C)CO)ccc1-2", "Potency": "inconclusive [inhibitor, full curve, poor fit]"}, {"smiles": "COc1ccc(-n2c(O)c(/C=N/NS(=O)(=O)c3cccc([N+](=O)[O-])c3)c3ccccc3c2=O)cc1OC", "Potency": "inconclusive [inhibitor, single point]"}, {"smiles": "CCC(C)(C)C1CCc2[nH]nc(C(=O)NCCN3CCOCC3)c2C1", "note": "(stereo not drawn)", "Potency": "inconclusive [inhibitor, partial curve, poor fit]"}, {"smiles": "C/C(=N\\NC(=O)c1c(C)nc2ccccn12)c1ccc(O)cc1O", "Potency": "inconclusive [inhibitor, single point]"}, {"smiles": "O=C(CON=C1c2ccccc2-c2ccccc21)NC12CC3CC(CC(C3)C1)C2", "Potency": "inactive"}, {"smiles": "CCOc1cc2[nH]c(=O)n(CCC(=O)N3CCN(c4ccccc4OC)CC3)c(=O)c2cc1OCC", "Potency": "inconclusive [inhibitor, partial curve, poor fit]"}, {"smiles": "FC(F)(F)c1ccnc(N2CCN(Cc3cnc(-c4ccccc4)[nH]3)CC2)c1", "Potency": "inactive"}, {"smiles": "Cc1ccc(S(=O)(=O)n2nc(C)c(Br)c2C)c(C)c1C", "Potency": "inconclusive [inhibitor, single point]"}, {"smiles": "CC(C)[C@H](NC(=O)c1ccccc1F)C(=O)Nc1ccc2c(c1)OCO2", "Potency": "inconclusive [inhibitor, single point]"}, {"smiles": "Cc1[nH]n(-c2ccccc2)c(=O)c1-c1cccc(Cl)c1", "Potency": "active: 1.65 µM"}, {"smiles": "COc1ccc(C2C3=C(OC(C)=O)c4ccccc4C3=Nc3c2c(=O)n(C)c(=O)n3C)cc1", "note": "(stereo not drawn)", "Potency": "inconclusive [inhibitor, single point]"}]}]}
